The record followed here is a collection of fitness landscapes (doi:10.1038/s41467-024-54723-y).

Over roughly 18,000 sequences, “TetR repression strength (sort-seq, GFP reporter)” has its median near 0.23; the highest 2% begin near 0.68. This is one part of the list.

For the assay, the target named is TetR (class B, Tn10) (UniProt P04483). Briefly: TetR repression strength (sort-seq, GFP reporter) (relative to tetO2 = 1); higher = stronger repression. The note with it: E. coli. Summed up: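 E. coli SIG10-MAX carried a low-copy plasmid library with eight randomized operator positions between a constitutive promoter and sfGFP, with TetR constitutively expressed. Cells grew 5 h at 37 °C in LB with 50 µg/mL chloramphenicol, then 10^6 cells were FACS-sorted into 13 fluorescence bins, each Illumina-sequenced. Repression strength is the top bin index plus one minus the read-weighted mean bin, divided by the wild-type operator value. Three independent transformations; variants with ≥30 reads in all replicates and CV ≤0.5 were averaged.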
UniProt P04483, sequence (P04483 whole entry): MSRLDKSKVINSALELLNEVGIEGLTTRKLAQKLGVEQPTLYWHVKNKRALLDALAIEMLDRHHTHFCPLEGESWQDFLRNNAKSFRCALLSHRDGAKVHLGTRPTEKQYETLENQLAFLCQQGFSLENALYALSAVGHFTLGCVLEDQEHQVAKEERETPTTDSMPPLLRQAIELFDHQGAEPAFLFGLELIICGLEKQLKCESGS
Consider TCCCGGGTAGTGCCCGAGA, for which the TetR repression strength amounted to 0.197.

For the sequence TCCCGGCAAGTTGTCGAGA, the TetR repression strength was 0.286.

TCCCGCCGAGTAGAGGAGA yielded a TetR repression strength of 0.342.

Take TCCCGTGCAGTTGGAGAGA: the TetR repression strength amounted to 0.223.

For TCCCGTGGAGTTTGAGAGA, the TetR repression strength amounted to 0.172.

Turning to TCCCGGCGAGTGGAGGAGA, the TetR repression strength turned out to be 0.311.

In turn, TCCCCATGAGTATATGAGA yielded a TetR repression strength of 0.318.

Regarding TCCCGCCTAGTATCCGAGA, the TetR repression strength is 0.608.

Take TCCCGGGTAGTGATAGAGA: the TetR repression strength is 0.431.

For TCCCAATAAGTGAATGAGA, the TetR repression strength worked out at 0.403.

On to TCCCGAACAGTGATTGAGA, for which the TetR repression strength was 0.506.

In turn, TCCCCAGCAGTGACAGAGA registered a TetR repression strength of 0.211.

As to TCCCAAATAGTTCATGAGA, the TetR repression strength was 0.235.

The sequence TCCCGGTTAGTCTATGAGA gave a TetR repression strength of 0.375.

Consider TCCCCGCTAGTGGTGGAGA, for which the TetR repression strength came to 0.0215.

The sequence TCCCACTAAGTTGAGGAGA displayed a TetR repression strength of 0.161.

For the sequence TCCCGTTGAGTGGATGAGA, the TetR repression strength amounted to 0.196.

As to TCCCAAAAAGTCATTGAGA, the TetR repression strength was found to be 0.279.

TCCCAGGCAGTAGCAGAGA showed a TetR repression strength of 0.355.

Sequence TCCCTCTGAGTGCTCGAGA gave a TetR repression strength of 0.315.

On to TCCCTTGCAGTTTTAGAGA, for which the TetR repression strength is 0.26.

Take TCCCAAGAAGTGTGTGAGA: the TetR repression strength was 0.282.

Take TCCCCTCCAGTCGTTGAGA: the TetR repression strength was 0.49.

Turning to TCCCCGATAGTCGCGGAGA, the TetR repression strength was determined as 0.09.

TCCCCTTTAGTTAGCGAGA returned a TetR repression strength of 0.129.

For TCCCAGACAGTTAATGAGA, the TetR repression strength worked out at 0.607.

Take TCCCGCTGAGTGCTGGAGA: the TetR repression strength came out at 0.159.

Sequence TCCCCACAAGTCTGGGAGA yielded a TetR repression strength of 0.165.

For TCCCATGAAGTTCTTGAGA, the TetR repression strength turned out to be 0.166.

TCCCAATTAGTGATGGAGA yielded a TetR repression strength of 0.347.

Regarding TCCCTTGCAGTTAACGAGA, the TetR repression strength turned out to be 0.104.

TCCCGCTGAGTGCCAGAGA showed a TetR repression strength of 0.341.

In the case of TCCCATCAAGTGTGAGAGA, the TetR repression strength amounted to 0.215.

Turning to TCCCCCGAAGTGTAGGAGA, the TetR repression strength was 0.209.

Turning to TCCCGGCCAGTAACTGAGA, the TetR repression strength is 0.165.

For TCCCTGCGAGTCGGTGAGA, the TetR repression strength worked out at 0.245.

TCCCGGTCAGTGAGCGAGA showed a TetR repression strength of 0.426.

TCCCGTTGAGTAGTGGAGA: the TetR repression strength turned out to be 0.239.

With TCCCTTGGAGTTCCCGAGA, the TetR repression strength came out at 0.562.

TCCCCCATAGTTAGGGAGA showed a TetR repression strength of 0.

The sequence TCCCGGGTAGTGTGCGAGA registered a TetR repression strength of 0.268.

Sequence TCCCAACCAGTATCGGAGA displayed a TetR repression strength of 0.0726.

The sequence TCCCGTTTAGTCTTTGAGA came in with a TetR repression strength of 0.58.

In turn, TCCCATTCAGTCTTGGAGA returned a TetR repression strength of 0.254.

TCCCTTGGAGTTGTCGAGA came in with a TetR repression strength of 0.144.

The sequence TCCCGTAGAGTGCGGGAGA had a TetR repression strength of 0.056.

Sequence TCCCAATTAGTCCACGAGA registered a TetR repression strength of 0.346.

The sequence TCCCGTATAGTCAGTGAGA registered a TetR repression strength of 0.346.

TCCCCAGTAGTGCCGGAGA showed a TetR repression strength of 0.264.

For TCCCGTTAAGTCTGTGAGA, the TetR repression strength came out at 0.277.

TCCCTGACAGTGACTGAGA showed a TetR repression strength of 0.49.

The sequence TCCCGTAGAGTCTTAGAGA had a TetR repression strength of 0.128.

TCCCATGTAGTGGCCGAGA: the TetR repression strength came to 0.26.

As for TCCCGGAGAGTCGGAGAGA, the TetR repression strength is 0.187.

On to TCCCATAGAGTGGTCGAGA, for which the TetR repression strength was 0.339.

TCCCCGTCAGTCGGTGAGA came in with a TetR repression strength of 0.138.

As for TCCCGGGTAGTTTCAGAGA, the TetR repression strength came to 0.146.

Take TCCCCGTTAGTGCAAGAGA: the TetR repression strength was 0.423.

Sequence TCCCTTGCAGTGAGAGAGA had a TetR repression strength of 0.61.

Turning to TCCCCGAAAGTTTCTGAGA, the TetR repression strength was found to be 0.0126.

Take TCCCATCAAGTATATGAGA: the TetR repression strength was determined as 0.104.

TCCCCGCCAGTGGAAGAGA: the TetR repression strength worked out at 0.215.

On to TCCCAGACAGTCATCGAGA, for which the TetR repression strength stood at 0.368.

TCCCTTGTAGTTGGGGAGA returned a TetR repression strength of 0.136.

TCCCAGAGAGTCGGTGAGA: the TetR repression strength was found to be 0.326.

Take TCCCTCGTAGTGTATGAGA: the TetR repression strength was determined as 0.0896.

As for TCCCTATTAGTTGGGGAGA, the TetR repression strength was determined as 0.483.

As for TCCCGTTTAGTCGTCGAGA, the TetR repression strength stood at 0.447.

TCCCTCGAAGTGAGAGAGA registered a TetR repression strength of 0.208.

With TCCCAATGAGTTCAAGAGA, the TetR repression strength was 0.361.

In turn, TCCCGCAGAGTGATAGAGA came in with a TetR repression strength of 0.521.

As for TCCCGGCCAGTAGAGGAGA, the TetR repression strength is 0.0618.

For the sequence TCCCGCTGAGTGTGGGAGA, the TetR repression strength was found to be 0.102.

For the sequence TCCCTAGAAGTTGCGGAGA, the TetR repression strength was 1.2.

Sequence TCCCCGCCAGTAAAAGAGA displayed a TetR repression strength of 0.389.

On to TCCCCTAAAGTAGGCGAGA, for which the TetR repression strength amounted to 0.0467.

For the sequence TCCCGACAAGTGTTCGAGA, the TetR repression strength turned out to be 0.297.

The sequence TCCCTGCGAGTGTGTGAGA displayed a TetR repression strength of 0.254.

Sequence TCCCTGTTAGTCAGGGAGA displayed a TetR repression strength of 0.0638.

With TCCCGCATAGTGCTGGAGA, the TetR repression strength came out at 0.0999.

For TCCCAGCGAGTAACGGAGA, the TetR repression strength came out at 0.104.

In turn, TCCCAAGAAGTGATAGAGA showed a TetR repression strength of 0.393.

The sequence TCCCATATAGTCAGGGAGA returned a TetR repression strength of 0.345.

TCCCGCCTAGTCTCGGAGA gave a TetR repression strength of 0.

Turning to TCCCGAGTAGTGAAGGAGA, the TetR repression strength was 0.436.

Take TCCCTATAAGTAGGAGAGA: the TetR repression strength worked out at 0.228.

TCCCGGGAAGTGCAAGAGA yielded a TetR repression strength of 0.563.

Turning to TCCCCTGAAGTGCGGGAGA, the TetR repression strength was determined as 0.155.

In turn, TCCCTGTTAGTTACGGAGA had a TetR repression strength of 0.193.

In turn, TCCCTGTAAGTTGCAGAGA registered a TetR repression strength of 0.0925.

Take TCCCTCGAAGTCCTTGAGA: the TetR repression strength was determined as 0.279.

Sequence TCCCATCGAGTAAAGGAGA came in with a TetR repression strength of 0.0791.

Consider TCCCGACAAGTATATGAGA, for which the TetR repression strength amounted to 0.24.

For the sequence TCCCGCGTAGTGCCAGAGA, the TetR repression strength worked out at 0.163.

Turning to TCCCGGCAAGTACTGGAGA, the TetR repression strength stood at 0.115.

TCCCTAGGAGTAATTGAGA registered a TetR repression strength of 0.272.

With TCCCTCTCAGTCTGTGAGA, the TetR repression strength was found to be 0.376.

On to TCCCGAGAAGTAACTGAGA, for which the TetR repression strength amounted to 0.172.

TCCCCGGTAGTACGAGAGA displayed a TetR repression strength of 0.196.

For TCCCAATGAGTGCAAGAGA, the TetR repression strength was determined as 0.309.

TCCCACTCAGTTGGCGAGA showed a TetR repression strength of 0.169.

TCCCAGCCAGTGGCCGAGA yielded a TetR repression strength of 0.17.
